Reference: the supplement of paper PMC12217912
Some of the results follow. Sequences were assembled here from the parent chain. Inactive controls read about 0.05.

B1: TEV protease; numbered along this chain (parent)
chain: MGESLFKGPRDYNPISSSICHLTNESDGHTTSLYGIGFGPFIITNKHLFRRNNGTLVVQSLHGVFKVKDTTTLQQHLVDGRDMIIIRMPKDFPPFPQKLKFREPQREERICLVTTNFQTKSMSSMVSDTSCTFPSGDGIFWKHWIQTKDGQCGSPLVSTRDGFIVGIHSASNFTNTNNYFTSVPKNFMELLTNQEAQQWVSGWRLNADSVLWGGHKVFMVKPEEPFQPVKEATQL

Variants of: B1
Test: raw area under fraction-flipped curve 0-4 h after induction (AUC4h, not background-subtracted), DNA-recorder readout of cleavage of the substrate (dimensionless); higher = more cleavage of the substrate by the protease variant
Conditions: temperature: 34 °C; time window: 0-4 h after rhamnose induction
Method: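 In vivo DNA recorder in E. coli TOP10(DE3) ΔrhaA at 34 °C. Each TEVp single-site mutant (parent TEVp 0) is paired with a single-site variant of the 7-mer TEVs (canonical ENLYFQ|S). The substrate sits between flexible linkers in a Bxb1-sfGFP-TEVs-SsrA fusion, so cleavage stabilises Bxb1 and speeds flipping of a recombination array, read by NGS. The value is the raw area under the fraction-flipped curve over 0-4 h after rhamnose induction (AUC4h), with ≥20 reads per time point. It is not background-subtracted; inactive controls average about 0.047.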
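Also: Bxb1 expression induced with 0.2% (w/v) L-rhamnose at OD600 near 0.5, cultures sampled hourly, flipped fraction per protease–substrate barcode pair counted by paired-end Illumina sequencing.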

Variant	area with substrate ENAYFQS	area with substrate ENCYFQS	area with substrate ENDYFQS	area with substrate ENEYFQS	area with substrate ENFYFQS	area with substrate ENHYFQS	area with substrate ENKYFQS	area with substrate ENMYFQS	area with substrate ENNYFQS	area with substrate ENPYFQS	area with substrate ENQYFQS	area with substrate ENRYFQS	area with substrate ENSYFQS	area with substrate ENTYFQS	area with substrate ENVYFQS	area with substrate ENYYFQS	area with substrate ENIYFQS	area with substrate ENGYFQS	area with substrate ENWYFQS
MGESLFKGPRDYNPISSSICHLTNESDGHTTSLYGIGFGPFIITNKHLFRRNNGTLVVQSLHGVFKVKDTTTLQQHLVDGRDMIIIRMPKDFPPFPQKLKFREPQREERICLVQTNFQTKSMSSMVSDTSCTFPSGDGIFWKHWIQTKDGQCGSPLVSTRDGFIVGIHSASNFTNTNNYFTSVPKNFMELLTNQEAQQWVSGWRLNADSVLWGGHKVFMVKPEEPFQPVKEATQL [T114Q]	0.0581	0.0668	0.0649	0.0623	0.0647	0.0576	0.0759	0.111	0.0614	0.0531	0.0707	0.0646	0.0649	0.0798	0.0969	0.0757	–	–	–
MGESLFKGPRDYNPISSSICHLTNESDGHTTSLYGIGFGPFIITNKHLFRRNNGTLVVQSLHGVFKVKDTTTLQQHLVDGRDMIIIRMPKDFPPFPQKLKFREPQREERICLVTWNFQTKSMSSMVSDTSCTFPSGDGIFWKHWIQTKDGQCGSPLVSTRDGFIVGIHSASNFTNTNNYFTSVPKNFMELLTNQEAQQWVSGWRLNADSVLWGGHKVFMVKPEEPFQPVKEATQL [T115W]	0.055	0.0696	–	0.0745	0.0747	0.0624	0.0511	–	0.0479	0.0662	0.0576	0.0562	0.0595	0.07	–	–	0.102	–	–
MGESLFKGPRDYNPISSSICHLTNESDGHTTSLYGIGFGPFIITNKHLFRRNNGTLVVQSLHGVFKVKDTTTLQQHLVDGRDMIIIRMPKDFPPFPQKLKFREPQREERICLVTTEFQTKSMSSMVSDTSCTFPSGDGIFWKHWIQTKDGQCGSPLVSTRDGFIVGIHSASNFTNTNNYFTSVPKNFMELLTNQEAQQWVSGWRLNADSVLWGGHKVFMVKPEEPFQPVKEATQL [N116E]	0.0629	0.0662	0.051	0.0647	0.0524	0.0547	–	0.0581	0.0437	0.0687	0.0484	0.0566	0.0466	–	–	–	0.0845	0.0617	0.0061
MGESLFKGPRDYNPISSSICHLTNESDGHTTSLYGIGFGPFIITNKHLFRRNNGTLVVQSLHGVFKVKDTTTLQQHLVDGRDMIIIRMPKDFPPFPQKLKFREPQREERICLVTTNGQTKSMSSMVSDTSCTFPSGDGIFWKHWIQTKDGQCGSPLVSTRDGFIVGIHSASNFTNTNNYFTSVPKNFMELLTNQEAQQWVSGWRLNADSVLWGGHKVFMVKPEEPFQPVKEATQL [F117G]	0.0648	–	0.0605	0.0597	–	0.0616	–	–	0.077	–	0.0357	–	–	0.067	0.0675	0.0826	0.105	0.062	–
MGESLFKGPRDYNPISSSICHLTNESDGHTTSLYGIGFGPFIITNKHLFRRNNGTLVVQSLHGVFKVKDTTTLQQHLVDGRDMIIIRMPKDFPPFPQKLKFREPQREERICLVTTNKQTKSMSSMVSDTSCTFPSGDGIFWKHWIQTKDGQCGSPLVSTRDGFIVGIHSASNFTNTNNYFTSVPKNFMELLTNQEAQQWVSGWRLNADSVLWGGHKVFMVKPEEPFQPVKEATQL [F117K]	0.0552	0.0474	–	0.0703	–	0.0688	0.0612	0.066	0.0626	0.0653	0.0668	0.0905	0.0503	0.06	0.0766	0.0645	0.0727	0.0636	0.0546
MGESLFKGPRDYNPISSSICHLTNESDGHTTSLYGIGFGPFIITNKHLFRRNNGTLVVQSLHGVFKVKDTTTLQQHLVDGRDMIIIRMPKDFPPFPQKLKFREPQREERICLVTTNFQHKSMSSMVSDTSCTFPSGDGIFWKHWIQTKDGQCGSPLVSTRDGFIVGIHSASNFTNTNNYFTSVPKNFMELLTNQEAQQWVSGWRLNADSVLWGGHKVFMVKPEEPFQPVKEATQL [T119H]	0.0655	–	0.0502	–	0.0538	0.0391	–	–	0.0574	0.0343	0.0491	–	0.0552	0.0468	–	–	0.101	–	–
MGESLFKGPRDYNPISSSICHLTNESDGHTTSLYGIGFGPFIITNKHLFRRNNGTLVVQSLHGVFKVKDTTTLQQHLVDGRDMIIIRMPKDFPPFPQKLKFREPQREERICLVTTNFQTQSMSSMVSDTSCTFPSGDGIFWKHWIQTKDGQCGSPLVSTRDGFIVGIHSASNFTNTNNYFTSVPKNFMELLTNQEAQQWVSGWRLNADSVLWGGHKVFMVKPEEPFQPVKEATQL [K120Q]	0.0642	–	0.0612	0.0556	0.066	–	0.0466	–	0.0729	–	–	0.062	0.0627	0.0691	0.0781	0.0541	–	0.0603	–
MGESLFKGPRDYNPISSSICHLTNESDGHTTSLYGIGFGPFIITNKHLFRRNNGTLVVQSLHGVFKVKDTTTLQQHLVDGRDMIIIRMPKDFPPFPQKLKFREPQREERICLVTTNFQTKDMSSMVSDTSCTFPSGDGIFWKHWIQTKDGQCGSPLVSTRDGFIVGIHSASNFTNTNNYFTSVPKNFMELLTNQEAQQWVSGWRLNADSVLWGGHKVFMVKPEEPFQPVKEATQL [S121D]	0.0597	0.0654	0.0481	0.0602	0.0584	0.0513	–	–	0.0558	0.0666	0.0558	0.0786	0.067	0.0513	0.0797	0.0492	0.126	–	0.0045
MGESLFKGPRDYNPISSSICHLTNESDGHTTSLYGIGFGPFIITNKHLFRRNNGTLVVQSLHGVFKVKDTTTLQQHLVDGRDMIIIRMPKDFPPFPQKLKFREPQREERICLVTTNFQTKLMSSMVSDTSCTFPSGDGIFWKHWIQTKDGQCGSPLVSTRDGFIVGIHSASNFTNTNNYFTSVPKNFMELLTNQEAQQWVSGWRLNADSVLWGGHKVFMVKPEEPFQPVKEATQL [S121L]	0.0629	0.0659	0.05	0.0568	0.0575	0.0634	0.0622	0.0948	0.0629	0.0665	0.0605	0.0561	0.0553	–	0.0806	–	0.121	0.0637	0.0817
